Test results published in the antibiotic and cytotoxicity screens of Wong et al. (2023).
This is one part of the list.

Tested on: HepG2
Assay: cytotoxicity call (relative viability < 0.9)
Conditions: 10 µM

SMILES	cytotoxicity call
O=c1ccn([C@H]2C[C@H](O)[C@@H](CO)O2)c(=O)[nH]1	inactive
CC1=C(C(=O)O)N2C(=O)C(NC(=O)C(N)C3=CCC=CC3)C2SC1 (configuration not stated)	inactive
CCOc1ccc(CO[C@@H]2O[C@H](CO)[C@@H](O)[C@H](O)[C@H]2NC(C)=O)cc1OC	active
CC[C@H](C)[C@H](N)C1=N[C@H](C(=O)N[C@@H](CC(C)C)C(=O)N[C@@H]2CCC(=O)[O][Zn][O]C(=O)C[C@H]3NC(=O)[C@H](Cc4c[nH]cn4)NC(=O)[C@@H](Cc4ccccc4)NC(=O)[C@H]([C@@H](C)CC)NC(=O)[C@@H](CCCN)NC(=O)[C@H](CCCCNC(=O)[C@H](CC(N)=O)NC3=O)NC(=O)[C@H]([C@@H](C)CC)NC2=O)CS1	inactive
C[C@H](CO)N1C[C@H](C)[C@@H](CN(C)C(=O)c2ccccc2)OCCCC[C@H](C)Oc2ccc(NS(=O)(=O)c3ccc(F)cc3)cc2C1=O	inactive
COC1C=COC2(C)Oc3c(C)c(O)c4c(O)c(c5c(nc6cc(C)ccn65)c4c3C2=O)NC(=O)C(C)=CC=CC(C)C(O)C(C)C(O)C(C)C(OC(C)=O)C1C (configuration not stated)	inactive
C[C@H](CO)N1C[C@H](C)[C@@H](CN(C)C(=O)Nc2ccc(C(F)(F)F)cc2)OCCCC[C@H](C)Oc2ccc(NC(=O)c3ccccc3)cc2C1=O	inactive
COc1ccc(S(=O)(=O)N(C)C[C@@H]2Oc3ncc(-c4ccncc4)cc3C(=O)N([C@@H](C)CO)C[C@H]2C)cc1	inactive
O=C(NO)c1ccc(C(=O)N/N=C/[C@@H](O)[C@H](O)[C@H](O)CO)cc1	inactive
O=P([O-])(O)C(O)(Cc1cccnc1)P(=O)(O)O.[Na+]	inactive
O=C1C=CC(=O)N1c1ccc(O)cc1	active
Cc1ccc(S(=O)(=O)N(C)C[C@H]2Oc3c(NS(=O)(=O)c4cccs4)cccc3C(=O)N([C@@H](C)CO)C[C@H]2C)cc1	inactive
COCC#Cc1ccc2c(c1)O[C@H](CN(C)S(=O)(=O)c1ccc(C)cc1)[C@H](C)CN([C@H](C)CO)S2(=O)=O	inactive
C=CCNC(=O)[C@@H]1[C@H]2C(=O)O[C@H](c3ccccc3)[C@H](c3ccccc3)N2[C@H](c2ccc(O)cc2)[C@@]12C(=O)Nc1ccc(C#CC3=CCCCC3)cc12	inactive
Cc1ccc(S(=O)(=O)N(C)C[C@H]2Oc3c(NS(C)(=O)=O)cccc3C(=O)N([C@H](C)CO)C[C@@H]2C)cc1	inactive
COc1ccc(S(=O)(=O)N(C)C[C@H]2OCCCC[C@@H](C)Oc3ccc(NC(=O)Nc4ccccc4)cc3C(=O)N([C@H](C)CO)C[C@@H]2C)cc1	inactive

SMILES	cytotoxicity call
Cc1noc(C)c1S(=O)(=O)Nc1ccc2c(c1)CC(=O)N([C@@H](C)CO)C[C@H](C)[C@@H](CN(C)S(=O)(=O)c1ccc(F)cc1)O2	inactive
CN[C@@H]1[C@@H](O[C@H]2O[C@H](CO)[C@@H](N)[C@H](O)[C@H]2O)O[C@H]2C[C@@H](N)[C@H](O[C@H]3[C@H](O)[C@@H](O)[C@H](N)C[C@@H]3N)O[C@@H]2[C@@H]1O	inactive
COc1ccc(-c2cccc(-c3ccc([C@H]4CC(=O)C[C@@H](c5ccccc5)C45C(=O)OC(C)(C)OC5=O)cc3)c2)cc1	inactive
C[C@H]1CN([C@@H](C)CO)C(=O)c2cc(NC(=O)Nc3ccccc3)ccc2O[C@H]1CN(C)Cc1ccc(C(F)(F)F)cc1	inactive
CCOC(N)=O	inactive
C[C@H]1CN([C@@H](C)CO)C(=O)c2cccc(NC(=O)Nc3ccc4c(c3)OCO4)c2O[C@H]1CN(C)S(=O)(=O)c1cn(C)cn1	inactive
CN(C)CCCNC(=O)C[C@H]1CC[C@@H]2[C@H](COc3ccc(NC(=O)c4ccc5c(c4)OCO5)cc3C(=O)N2C)O1	inactive
CCNC(=O)[C@@H]1[C@@H](CO)[C@@H]2Cn3c(ccc(-c4cccc(C(=O)N(C)C)c4)c3=O)[C@H]1N2	inactive
CCC(=O)N1C[C@]2(CN(C2)C(=O)CN2CCOCC2)c2c([nH]c3cc(ccc23)OC)[C@@H]1CO	inactive
CO[C@H]1CN(C)C(=O)c2ccc(NC(=O)c3ccccc3)cc2OC[C@H](C)N(C(=O)CN(C)C)C[C@@H]1C	inactive
Nc1ncn(C[C@@H](O)CO)c2nc(Br)nc1-2	inactive
C[C@@H]1CN([C@@H](C)CO)C(=O)c2cc(NC(=O)C3CC3)ccc2O[C@@H]1CN(C)Cc1ccc2c(c1)OCO2	inactive
COC(CN(C)C(=O)c1cn(C)c2ccc(S(=O)(=O)N3CCOCC3)cc2c1=O)OC	inactive
Cc1ccc(S(=O)(=O)Nc2ccc3c(c2)C(=O)N([C@@H](C)CO)C[C@H](C)[C@@H](CN(C)C(=O)Nc2ccc(C(F)(F)F)cc2)OCCCC[C@@H](C)O3)cc1	active
CC(C)(C)S(=O)N1Cc2cc(C(=O)NCc3ccc4c(c3)OCO4)nc(-c3cccc(C#CCC4CCCC4)c3)c2[C@H]1CCO (some centres not stated)	inactive
COc1ccc(NC(=O)Nc2ccc3c(c2)C(=O)N([C@H](C)CO)C[C@H](C)[C@H](CN(C)Cc2ccncc2)OCCCC[C@H](C)O3)cc1	inactive
